The results in this text go back to the supplement of paper PMC4604168 (melanoma cell lines).

Test in all cases: cell count relative to DMSO control; melanoma cells; higher = more viable cells
What all share (details): library dose: standard library concentration; 72 h

The test system of test [1] is A101D.
Test [2] has as its system A2058.
The subject of test [3] is A375.

Molecules are shown by their SMILES. Some of the results follow. Single values are uncertain, as repeats are few or missing.
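Note: cells treated in 1,536-well plates, then fixed and DAPI-stained, with nuclei counted from automated high-throughput microscope images.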

For `COc1ccc(C2=N[C@@H](c3ccc(Cl)cc3)[C@@H](c3ccc(Cl)cc3)N2C(=O)N2CCNC(=O)C2)c(OC(C)C)c1` [Nutlin-3] + Cn1cncc1[C@@](N)(c1ccc(Cl)cc1)c1ccc2c(c1)c(-c1cccc(Cl)c1)cc(=O)n2C [tipifarnib] (first compound 0.5 µM, partner dose 0.05 µM), the cell count in test [1] amounted to 74.7%; in test [2], 76.8%; in test [3], 85.3%.
Consider `COc1ccc(C2=N[C@@H](c3ccc(Cl)cc3)[C@@H](c3ccc(Cl)cc3)N2C(=O)N2CCNC(=O)C2)c(OC(C)C)c1` [Nutlin-3] + Cc1cc(Nc2cc(N3CCN(C)CC3)nc(/C=C/c3ccccc3)n2)n[nH]1 [ENMD2076] (first compound 0.5 µM, partner dose 0.2 µM), for which the cell count is 71% in test [1], 103% in test [2] and 91.2% in test [3].
Take `Cc1cn(-c2cc(NC(=O)c3ccc(C)c(Nc4nccc(-c5cccnc5)n4)c3)cc(C(F)(F)F)c2)cn1` [nilotinib] + Nc1ccn([C@@H]2O[C@H](CO)[C@@H](O)C2(F)F)c(=O)n1 [gemcitabine] (first compound 1 µM, partner dose 0.002 µM): the cell count in test [1] was 99.9%; in test [2], 92.9%; in test [3] it was 123%.
Taken in the same sequence, the figures for `Cn1c(=O)n(-c2ccc(C(C)(C)C#N)cc2)c2c3cc(-c4cnc5ccccc5c4)ccc3ncc21` + Nc1ncn([C@H]2C[C@H](O)[C@@H](CO)O2)c(=O)n1 [decitabine] (first compound 0.02 µM, partner dose 0.5 µM) were 68.4%, 45.7% and 87.4%.
As for `COc1ccc(C2=N[C@@H](c3ccc(Cl)cc3)[C@@H](c3ccc(Cl)cc3)N2C(=O)N2CCNC(=O)C2)c(OC(C)C)c1` [Nutlin-3] + Clc1ccc(Nc2nnc(Cc3ccncc3)c3ccccc23)cc1 [vatalanib] (first compound 0.5 µM, partner dose 10 µM), the cell count turned out to be 64.4% in test [1], 79.4% in test [2] and 88.9% in test [3].
With `Cc1cc(Nc2cc(N3CCN(C)CC3)nc(/C=C/c3ccccc3)n2)n[nH]1` + CC(=O)c1c(C)c2cnc(Nc3ccc(N4CCNCC4)cn3)nc2n(C2CCCC2)c1=O [palbociclib] (first compound 0.2 µM, partner dose 0.2 µM), the cell count in test [1] was 61.5%; in test [2], 94.9%; in test [3], 69.3%.
For `Cc1cc(Nc2cc(N3CCN(C)CC3)nc(/C=C/c3ccccc3)n2)n[nH]1` + COc1cc(Nc2ncc(F)c(Nc3ccc4c(n3)NC(=O)C(C)(C)O4)n2)cc(OC)c1OC [Tamatinib] (first compound 0.2 µM, partner dose 2 µM), in that order: 58.7%, 66.4% and 96.4%.
`Cc1cc(Nc2cc(N3CCN(C)CC3)nc(/C=C/c3ccccc3)n2)n[nH]1` + Cc1cc(N2CCOCC2)cc2[nH]c(-c3c(NC[C@@H](O)c4cccc(Cl)c4)cc[nH]c3=O)nc12 [BMS536924] (first compound 0.2 µM, partner dose 1 µM): the cell count was 68.1% in test [1], 73.4% in test [2] and 99.4% in test [3].
Taken in the same sequence, the figures for `Cc1cn(-c2cc(NC(=O)c3ccc(C)c(Nc4nccc(-c5cccnc5)n4)c3)cc(C(F)(F)F)c2)cn1` [nilotinib] + C=CCn1c(=O)c2cnc(Nc3ccc(N4CCN(C)CC4)cc3)nc2n1-c1cccc(C(C)(C)O)n1 [MK1775] (first compound 1 µM, partner dose 0.1 µM) were 66.2%, 85.1% and 81.2%.
For `CC(C)C[C@H](NC(=O)[C@H](Cc1ccccc1)NC(=O)c1cnccn1)B(O)O` [Bortezomib] + Nc1ncn([C@H]2C[C@H](O)[C@@H](CO)O2)c(=O)n1 [decitabine] (first compound 0.005 µM, partner dose 0.5 µM), in that order: 10.5%, 14.4% and 82.6%.
In the case of `COc1ccc(C2=N[C@@H](c3ccc(Cl)cc3)[C@@H](c3ccc(Cl)cc3)N2C(=O)N2CCNC(=O)C2)c(OC(C)C)c1` [Nutlin-3] + C[C@]1(c2nc3c(C(N)=O)cccc3[nH]2)CCCN1 [Veliparib] (first compound 0.5 µM, partner dose 7 µM), the cell count came out at 61.8% in test [1], 73.5% in test [2] and 77.3% in test [3].
With `Cn1c(=O)n(-c2ccc(C(C)(C)C#N)cc2)c2c3cc(-c4cnc5ccccc5c4)ccc3ncc21` + O=C(Nc1cccc(Cl)c1)Nc1ncc(CCNc2ncnc3ccsc23)s1 [SNS314] (first compound 0.02 µM, partner dose 0.004 µM), the cell count in test [1] was found to be 72.4%; in test [2] it was 68.1%; in test [3], 64%.
